Here are results for 44 molecules from publication PMC4336329 (PLoS ONE, 2015).

Screen size: about 310,000 compounds; about 14,000 (4.5%) showed an effect of 50% or more. Effects have a minus sign here. The list shows a part of the results.
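Note: peak tail current of the secondary pulse compared with the same well before compound.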

The target in this test is human ether-à-go-go-related gene (hERG) potassium channel (human, UniProt Q12809). In words: primary screen, population patch clamp on CHO cells stably expressing hERG.
Chain of human ether-à-go-go-related gene (hERG) potassium channel (Q12809 whole entry, looked up): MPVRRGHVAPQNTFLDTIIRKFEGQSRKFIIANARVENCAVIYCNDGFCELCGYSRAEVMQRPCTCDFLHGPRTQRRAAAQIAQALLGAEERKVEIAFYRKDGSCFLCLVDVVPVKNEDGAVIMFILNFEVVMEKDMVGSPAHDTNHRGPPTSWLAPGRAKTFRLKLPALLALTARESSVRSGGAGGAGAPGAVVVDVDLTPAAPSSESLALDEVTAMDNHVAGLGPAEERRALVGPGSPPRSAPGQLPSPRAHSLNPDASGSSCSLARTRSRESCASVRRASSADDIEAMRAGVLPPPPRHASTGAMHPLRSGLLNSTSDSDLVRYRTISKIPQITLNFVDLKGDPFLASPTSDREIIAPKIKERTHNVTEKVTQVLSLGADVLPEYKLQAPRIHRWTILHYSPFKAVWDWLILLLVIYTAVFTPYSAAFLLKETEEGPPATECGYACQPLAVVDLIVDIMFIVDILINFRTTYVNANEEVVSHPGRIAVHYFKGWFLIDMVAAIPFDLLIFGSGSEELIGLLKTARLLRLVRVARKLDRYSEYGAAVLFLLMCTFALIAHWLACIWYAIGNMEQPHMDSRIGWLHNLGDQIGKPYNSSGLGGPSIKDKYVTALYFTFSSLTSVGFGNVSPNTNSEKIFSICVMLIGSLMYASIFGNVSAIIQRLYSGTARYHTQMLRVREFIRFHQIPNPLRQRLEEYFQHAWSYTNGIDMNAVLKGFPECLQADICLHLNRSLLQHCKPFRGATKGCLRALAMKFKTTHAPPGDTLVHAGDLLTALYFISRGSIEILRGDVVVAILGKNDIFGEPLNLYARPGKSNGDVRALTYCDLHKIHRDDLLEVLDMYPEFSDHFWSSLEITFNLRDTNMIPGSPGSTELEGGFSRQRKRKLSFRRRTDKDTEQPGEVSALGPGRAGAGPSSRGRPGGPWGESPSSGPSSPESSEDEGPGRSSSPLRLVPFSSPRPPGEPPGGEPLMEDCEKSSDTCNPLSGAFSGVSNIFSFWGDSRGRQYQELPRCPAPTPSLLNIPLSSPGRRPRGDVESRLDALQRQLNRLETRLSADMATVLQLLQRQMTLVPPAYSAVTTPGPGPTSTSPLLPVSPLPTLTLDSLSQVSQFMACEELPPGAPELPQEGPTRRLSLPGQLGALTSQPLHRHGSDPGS
With `CC(CCc1ccccc1)NC(=O)C1CCN(S(=O)(=O)c2cnc[nH]2)CC1` (centres unmarked), the “hERG current change (%, negative = inhibition) at 10uM” value is reported as 5.89%.
The value for `CCCC1Cc2nc(Cl)c(C#N)cc2CO1` (centres unmarked) was 15.6%; that for `CCN(CC)CCn1c2c(c(SCC(=O)Nc3nc(C)cs3)nc1=O)CCCC2` was -70.1%.
The value for `CC(=O)NC(CCS(C)(=O)=O)C(=O)Nc1ccc2c(c1)OCO2` (centres unmarked) was 7.45%; that for `Cc1ccc(NC(=S)NCCc2ccc(Cl)cc2)c(C)c1` was 16.3%; that for `CC(C)CCOCC1CC2(CC(C)(c3csc(N)n3)OC2=O)C(=O)O1` (centres unmarked) was 14.8%.
As to `COc1ccc(-c2nnc(SCc3cccc(C)c3)n2N)cc1`, the “hERG current change (%, negative = inhibition) at 10uM” value is 4.88%.
With `COc1cccc(Oc2ccc(C(F)(F)F)cc2N)c1` the figure was -1.73%.
`CC(=O)N1C(=O)N(C(C)=O)C2C1N(C(C)=O)C(=O)N2C(C)=O` (centres unmarked): the “hERG current change (%, negative = inhibition) at 10uM” value stood at 5.37%.
The value for `Cc1ccccc1N1CCN(C2CCCN(C(=O)CCN3CCCCC3=O)C2)CC1` (centres unmarked) was -19.5%; that for `CCOc1ccccc1N(CC(=O)NC1CCCCC1)C(=O)CCC(=O)Nc1nccs1` was -28.4%.
Take `COc1cccc(NC(=S)NC(=O)c2cncc(Br)c2)c1`: the “hERG current change (%, negative = inhibition) at 10uM” value was 6.77%.
With `COc1ccc(N2CCN(S(=O)(=O)c3ccc(OC)c(C(=O)N4CCOCC4)c3)CC2)cc1` the figure was 1.68%.
With `COc1cccc(/C=N/NC(=O)CNC(=O)/C=C\c2ccccc2)c1O` the figure was 7.53%; with `Cc1ccnc(NC(=O)c2ccc(COc3ccc(Cl)cc3)o2)c1`, -4.21%.
With `O=C(c1cnccn1)N1CCN(c2ccccc2F)CC1` the figure was 18.5%; with `Cc1ccccc1-n1nc(C(=O)c2cccs2)cc(-c2nc3ccccc3[nH]2)c1=N`, -1.9%; with `O=C(CSc1nnc(-c2cccnc2)n1Cc1ccco1)N1c2ccccc2Sc2ccccc21`, -33.7%.
Regarding `CCN(C(=O)C(C)Sc1ccc(S(=O)(=O)N2CCOCC2)cn1)c1ccccc1` (centres unmarked), the “hERG current change (%, negative = inhibition) at 10uM” value is recorded as 3.47%.
With `COc1cccc(CN2CCN(C(c3ccccc3)c3ccccc3)CC2)c1O.O=C(O)C(=O)O` the figure was -64.5%; with `Cn1c(SCC(=O)N2CCOCC2)nnc1-c1cnccn1`, 18%.
With `CCOC(=O)c1cnc(SCc2nc(N)nc(Nc3ccccc3OC)n2)nc1N` the figure was -2.39%.
As to `CC(=O)OCC(=O)[C@H]1CC[C@H]2[C@@H]3CC[C@H]4C[C@H](O)CC[C@]4(C)[C@H]3C(=O)C[C@]12C`, the “hERG current change (%, negative = inhibition) at 10uM” value is reported as -20.1%.
As to `O=c1nc(-c2ccccc2)c2cc(Br)ccc2[nH]1`, the “hERG current change (%, negative = inhibition) at 10uM” value is -6.26%.
Take `CCOc1ccc(CCNC(=O)COC(=O)c2cccnc2OCC)cc1OCC`: the “hERG current change (%, negative = inhibition) at 10uM” value is on record as -1.87%.
As for `CCc1c(C)c(C#N)c2nc3ccccc3n2c1NC`, the “hERG current change (%, negative = inhibition) at 10uM” value amounted to 4.55%.
In the case of `COC(=O)C1=C(c2cc3ccccc3o2)C[C@@H]2CC[C@H]1N2C(=O)NCCO`, the “hERG current change (%, negative = inhibition) at 10uM” value is 16%.
For `S=C(Nc1ccccc1)N1CCCCCC1`, the “hERG current change (%, negative = inhibition) at 10uM” value is 10.4%.
With `COc1ccc([N+](=O)[O-])cc1NC(=O)Nc1cccc(Cl)c1`, the “hERG current change (%, negative = inhibition) at 10uM” value was 4.75%.
The value for `CSc1cccc(NS(=O)(=O)c2cc(Br)cnc2N)c1` was -27.5%; that for `COc1ccc(NC(=O)c2sc3nc(N4CCOCC4)c4c(c3c2N)CC(C)(C)OC4)c(OC)c1` was 15.2%; that for `CC1C=CCC2C(=O)N(c3ccc(OC(=O)c4ccco4)cc3)C(=O)C12` (centres unmarked) was -3.79%.
On to `COc1ccccc1NC(=O)c1ccc2c(c1)OCO2`, for which the “hERG current change (%, negative = inhibition) at 10uM” value stood at 10.6%.
With `Cc1ccc(S(=O)(=O)N2CCN(C(=O)c3cc4c(s3)CCCC4)CC2)cc1` the figure was 8.26%; with `O=C(O)CC1S/C(=N/N=C/C2CC=CCC2)NC1=O` (centres unmarked), 15.6%; with `Cc1ccc(N2C(N)=C(C#N)C(c3cccnc3)C3=C2CC(C)(C)CC3=O)cc1` (centres unmarked), 0.65%.
The value for `O=c1c2ccccc2[nH]c(=S)n1CCCN1CCN(C2CCCCC2)CC1` was -53.9%; that for `Cc1c(NC(=O)CSc2nc3ccccc3c(=O)n2C(C)C)c(=O)n(-c2ccccc2)n1C` was -8.25%; that for `Cc1ccc(-c2n[nH]c(=S)n2/N=C/c2cc3c(cc2[N+](=O)[O-])OCO3)cc1` was 20.4%.
The value for `O=C(CN1C(=O)COc2ccccc21)N1CCc2ccccc2C1` was 5.63%; that for `O=C(Nc1ccccc1)C1=C[C@@H](c2ccc(C(F)(F)F)cc2)C[C@@H](OCCCCO)O1` was -2.91%.
In the case of `CCNc1nc(NCC)nc(N2CC(=O)N(CC(=O)OCC)C2=N)n1`, the “hERG current change (%, negative = inhibition) at 10uM” value was -2.36%.
The value for `Nc1nc(-c2ccc(Cl)cc2)nnc1-c1ccc(Br)cc1` was 41%; that for `COCCC(=O)N1CCC(Oc2ccc(C(=O)N3C[C@H]4CC[C@H]3C4)cc2)CC1` was 13%.
